# The whole screen tested about 330,000 compounds, of which about 560 (0.17%) were called active. Inconclusive results, whose numbers are uncertain, are shown with a selection of clear calls. The call rests on the fitted dose curve; in most records, active means well fitted inhibition curve with a large enough effect; inconclusive means small, poorly fitted or top-dose-only effect, or effect the other way; inactive means flat fitted curve, though single readings scatter. No potency is given beside an inconclusive call; the fits are too rough.
# Target: ATP-dependent 6-phosphofructokinase (Trypanosoma brucei brucei) (UniProt O15648)
# UniProt O15648, sequence (O15648 whole entry, looked up): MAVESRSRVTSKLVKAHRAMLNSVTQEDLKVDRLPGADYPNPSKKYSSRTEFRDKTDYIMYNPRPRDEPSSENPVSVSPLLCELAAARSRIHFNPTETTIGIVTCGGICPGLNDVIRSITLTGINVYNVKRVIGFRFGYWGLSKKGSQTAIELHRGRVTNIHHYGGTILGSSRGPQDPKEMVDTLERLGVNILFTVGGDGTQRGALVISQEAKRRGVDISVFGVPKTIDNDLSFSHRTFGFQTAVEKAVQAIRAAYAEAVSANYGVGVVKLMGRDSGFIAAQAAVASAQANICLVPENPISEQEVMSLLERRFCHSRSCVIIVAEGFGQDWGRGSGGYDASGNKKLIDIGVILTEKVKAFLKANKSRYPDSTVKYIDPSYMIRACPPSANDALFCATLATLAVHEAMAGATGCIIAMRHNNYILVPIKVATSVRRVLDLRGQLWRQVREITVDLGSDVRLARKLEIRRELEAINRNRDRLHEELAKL
# Assay: qHTS Assay to Find Inhibitors of T. brucei phosphofructokinase; further: nearly all actives have a fitted effect of over 60% in size
# Settings: T. brucei PFK, ADP-Glo luminescence; series mostly up to 57.5 µM
# How it was run: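 Activity is normalized to no-enzyme wells (full inhibition) and 1.25 nM enzyme wells (no inhibition). Reaction: 0.5 mM F6P, 0.1 mM ATP, 45 min RT, ADP-Glo luminescence; concentration-response curves fitted and classed by quality.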
# Potency means the concentration at half of the fitted maximal effect; tags describe the fitted curve by direction and shape.
row,Compound,Potency
1,CCC(COC(=O)c1cc(OC)c(OC)c(OC)c1)(c1ccccc1)N(C)C (centres undefined),"inconclusive [falling, single point]"
2,COc1ccc(OC)c(N2C(=O)NC(=O)/C(=C\c3ccc([N+](=O)[O-])s3)C2=O)c1,"inconclusive [falling, single point]"
3,C[C@]12C[C@H](O)[C@@H](O)CC1=CCC1C2CC[C@@]2(C)C1CC[C@@H]2O (some centres undefined),inactive
4,CN(C)C1C(=O)C(C(N)=O)=C(O)C2(O)C(=O)C3=C(O)c4c(O)cccc4C(C)(O)C3C(O)C12 (centres undefined),"inconclusive [falling, single point]"
5,COC(=O)Cn1cc(C=C2C(=O)NC(=O)NC2=O)c2ccccc21,inactive
6,O=[N+]([O-])c1ccc(CSc2nnc(-c3cnccn3)o2)cc1,active: 23.9 µM
7,CCc1ccc(N2C(=O)NC(=O)/C(=C\c3cc(C)n(-c4cc(C(=O)O)cc(C(=O)O)c4)c3C)C2=O)cc1,"inconclusive [falling, single point]"
8,O=C(NC1(C(F)(F)F)Oc2ccc(Cl)cc2O1)N1CCC2(CC1)OCCO2 (centres undefined),"inconclusive [falling, single point]"
9,CC(C)CNC(=O)/C=C/C=C/CCCCCC/C=C/c1ccc2c(c1)OCO2,inactive
10,Oc1ccc(Cl)c(Cl)c1,"inconclusive [falling, single point]"
11,O=[N+]([O-])c1ccc2c(c1)C(c1ccccc1)=NCCN2,inactive
12,CCOc1ccc(Cl)cc1CNCCc1ccc(F)cc1,inactive
13,CN(C)c1ccc(/C=C2\C(=O)NC(=O)N(Cc3ccc(F)cc3)C2=O)cc1,inactive
14,COc1ccc(-n2c(SC)nc3ccccc3c2=O)cc1,inactive
15,COc1cc(CN2CC3CC(C2)c2cccc(=O)n2C3)cc(OC)c1OC (centres undefined),"inconclusive [activator, full curve, poor fit]"
16,C[C@@H]1NCCc2cc(O)c(O)cc21,"inconclusive [falling, partial curve]"
17,CCN1/C(=C\C=C\C2=[N+](CC)c3ccccc3C2(C)C)C(C)(C)c2ccccc21,"inconclusive [falling, partial curve]"
18,Clc1cccc(N2CCNCC2)c1Cl,"inconclusive [falling, single point]"
19,CCn1c(O)c(C=Nc2ccc(N3CCOCC3)cc2)c(=O)n(CC)c1=S,inactive
20,O=C(CN1CCOCC1)c1ccc2cc[nH]c2c1,"inconclusive [falling, single point]"
21,O=P(O)(CCc1ccccn1)CN1CCCCC1,"inconclusive [falling, single point]"
22,O=C1NC(=O)N(Cc2ccc(F)cc2)C(=O)/C1=C\c1ccc([N+](=O)[O-])s1,inactive
23,Cn1cc(C(=O)OCC(=O)NC2(C#N)CCCC2)c2ccccc21,inactive
24,Cc1cc(C(=O)OCC(=O)Nc2cccc(F)c2)c(C)n1C1CC1,inactive
25,COc1ccc(OC)c(N2C(=O)/C(=C/c3ccco3)C(=O)NC2=S)c1,"inconclusive [falling, partial curve]"

row,Compound,Potency
1,CC(C)C(=O)c1cn(Cc2ccc(C#N)cc2)c2ccccc12,inactive
2,Cc1ccc(-c2nc(N3CCOCC3)s[n+]2-c2ccccc2)cc1,inactive
3,C/C(=C\c1ccc(N(C)C)cc1)[N+](=O)[O-],"inconclusive [activator, partial curve]"
4,C[n+]1c2ccccc2nc2ccc(NCCO)cc21,"inconclusive [falling, partial curve]"
5,NS(=O)(=O)c1cc(C(=O)OCC(=O)Nc2ccc3[nH]c(=O)[nH]c3c2)ccc1Cl,"inconclusive [falling, single point]"
6,COP(=S)(OC)SCN1C(=O)c2ccccc2C1=O,"inconclusive [falling, single point]"
7,Oc1cccc(/C=N/NP(=S)(c2ccccc2)c2ccccc2)c1,"inconclusive [falling, single point]"
8,NC(Cc1cc(O)c(O)cc1O)C(=O)O (centres undefined),active: 0.849 µM
9,CC1(C)OC(c2ccccc2)=C/C(=C/C=C2C(=O)NC(=S)NC2=O)O1,"inconclusive [activator, single point]"
10,N#CCCn1cc(C=C2C(=O)NC(=O)NC2=O)c(-c2ccccc2)n1,"inconclusive [activator, single point]"
11,CCN1CCN(C(=S)c2ccc(OC)cc2)CC1,"inconclusive [falling, partial curve]"
12,C=CCn1c(O)c(/C(C)=N/N2CCN(C)CC2)c(=O)[nH]c1=O,inactive
13,Cn1nnnc1NCc1ccc(Cl)c(Cl)c1,active: 10.7 µM
14,CCOC(=O)Cc1csc(NC(=O)c2c(O)c3ccccc3n(CCC(C)C)c2=O)n1,"inconclusive [activator, single point]"
15,O=[N+]([O-])c1cc([As](=O)(O)O)ccc1O,"inconclusive [falling, partial curve]"
16,Cn1cccc1/C=C1/SC(=S)N(CC(=O)O)C1=O,"inconclusive [activator, partial curve]"
17,C=CCN1C(=O)NC(=O)/C(=C/c2ccc(OCC(=O)Nc3ccc(C)cc3)cc2)C1=O,"inconclusive [falling, single point]"
18,CNC(=O)O/N=C(\N)Cc1csc2ccc(Cl)cc12,"inconclusive [falling, partial curve]"
19,COc1ccc2o/c(=N\O)c(C(=O)Nc3ccc(C)cc3)cc2c1,"inconclusive [activator, partial curve, poor fit]"
20,Cc1ccc(C(=O)CSc2nnc(CNc3ccc(F)cc3)o2)cc1,active: 16.9 µM
21,CCCCn1c(=O)c(C=Nc2cccnc2Cl)c(O)n(CCCCl)c1=O,inactive
22,Fc1ccc(CCNCc2ccc(Cl)c(Cl)c2)cc1,"inconclusive [falling, partial curve]"
23,COc1ccc(-n2c(/C=C/c3ccc4c(c3)OCO4)nc3ccccc3c2=O)cc1,"inconclusive [falling, single point]"
24,Cc1cc([N+](=O)[O-])c(Cl)cc1NC(=O)C(C)C,"inconclusive [falling, single point]"
25,CN1C(=O)NC(=O)/C(=C/c2ccc([N+](=O)[O-])o2)C1=O,"inconclusive [falling, single point]"

row,Compound,Potency
1,O=C1NC(=S)N(c2ccccc2)C(=O)/C1=C/c1ccco1,"inconclusive [falling, single point]"
2,C=CCN1C(=O)NC(=O)/C(=C/c2cccn2C)C1=O,inactive
3,CCOC(=O)c1c(/N=C/c2c(O)n(-c3ccc(F)cc3)c(=S)[nH]c2=O)sc2c1CCCC2,inactive
4,COc1ccc(CC2(CCc3ccncc3)C(=O)NC(=O)NC2=O)cc1OC,"inconclusive [falling, single point]"
5,CC(=O)Nc1cccc(NC(=S)Nc2ccc(F)c(Cl)c2)c1,active: 21.3 µM
6,CCOc1ccc(N2C(=O)NC(=O)/C(=C\c3ccc(N4CCCCC4)o3)C2=O)cc1,"inconclusive [falling, single point]"
7,O=C1NC(=O)N(c2ccccc2)C(=O)/C1=C/c1ccoc1,inactive
8,Cc1c(C=C2C(=O)N(C)C(=O)N(C)C2=O)c(=O)n(-c2ccccc2)n1C,"inconclusive [activator, single point]"
9,O=C1NC(=O)N(c2ccccc2F)C(=O)/C1=C/c1ccc(Sc2nc3ccccc3[nH]2)o1,"inconclusive [activator, single point]"
10,N=C1c2ccccc2CN1NC(=O)C1CC1,"inconclusive [activator, single point]"
11,N#Cc1ccc2ccn(CC(=O)NCc3ccccc3)c2c1,"inconclusive [falling, partial curve]"
12,CCC(C)N1C(=O)/C(=C/c2ccc3c(c2)CCN3CCCCl)C(=O)NC1=S (centres undefined),inactive
13,CC(C(Sc1ccccc1N)c1ccccc1)[N+](=O)[O-] (centres undefined),active: 23.9 µM
14,CCOC(=O)c1c(-n2c(C)cc(C=C3C(=O)NC(=S)NC3=O)c2C)sc2c1CCCC2,inactive
15,CC(Cc1ccccc1)NCCC(=O)NC(C)Cc1ccccc1 (centres undefined),inactive
16,CN(C)C(=Nc1ccccc1)P(=S)(N(C)C)N(C)C,inactive
17,COc1ccc(/C=C2/C(=O)NC(=O)N(Cc3ccco3)C2=O)cc1,"inconclusive [falling, single point]"
18,Cc1cc(C)c(S(=O)(=O)NCC2CCC(C(=O)N3CCC4(CC3)OCCO4)CC2)c(C)c1 (centres undefined),inactive
19,Cn1cccc1/C=C1\SC(=S)N(CC(=O)O)C1=O,"inconclusive [activator, single point]"
20,COc1ccc(N2C(=O)/C(=C/c3ccco3)C(=O)NC2=S)cc1,"inconclusive [falling, single point]"
21,Cc1cccc(OP(=O)(Oc2ccccc2)OC(c2ccccc2)C(F)(F)F)c1 (centres undefined),"inconclusive [activator, single point]"
22,C=CCN1CCc2cccc3c2[C@H]1Cc1ccc(O)c(O)c1-3,"inconclusive [falling, full curve]"
23,NCC(O)c1cc(O)c(O)cc1F (centres undefined),"inconclusive [falling, full curve, poor fit]"
24,O=C(COc1ccc(Cl)cc1Cl)Nc1cccnc1,"inconclusive [falling, partial curve]"

# Source: PubChem BioAssay AID485367 (National Center for Advancing Translational Sciences (NCATS), 2010)
